Screen size: about 45,000 compounds; about 65 (0.1%) were called active. Calls follow the shape of the dose curve; as a rule, active = well fitted activation curve with a large enough effect; inconclusive = small, poorly fitted or top-dose-only effect; inactive = no such curve, though single readings can be large or run the other way. This is one part of the list.

Sequence of UniProt P54803 (P54803 whole entry, looked up): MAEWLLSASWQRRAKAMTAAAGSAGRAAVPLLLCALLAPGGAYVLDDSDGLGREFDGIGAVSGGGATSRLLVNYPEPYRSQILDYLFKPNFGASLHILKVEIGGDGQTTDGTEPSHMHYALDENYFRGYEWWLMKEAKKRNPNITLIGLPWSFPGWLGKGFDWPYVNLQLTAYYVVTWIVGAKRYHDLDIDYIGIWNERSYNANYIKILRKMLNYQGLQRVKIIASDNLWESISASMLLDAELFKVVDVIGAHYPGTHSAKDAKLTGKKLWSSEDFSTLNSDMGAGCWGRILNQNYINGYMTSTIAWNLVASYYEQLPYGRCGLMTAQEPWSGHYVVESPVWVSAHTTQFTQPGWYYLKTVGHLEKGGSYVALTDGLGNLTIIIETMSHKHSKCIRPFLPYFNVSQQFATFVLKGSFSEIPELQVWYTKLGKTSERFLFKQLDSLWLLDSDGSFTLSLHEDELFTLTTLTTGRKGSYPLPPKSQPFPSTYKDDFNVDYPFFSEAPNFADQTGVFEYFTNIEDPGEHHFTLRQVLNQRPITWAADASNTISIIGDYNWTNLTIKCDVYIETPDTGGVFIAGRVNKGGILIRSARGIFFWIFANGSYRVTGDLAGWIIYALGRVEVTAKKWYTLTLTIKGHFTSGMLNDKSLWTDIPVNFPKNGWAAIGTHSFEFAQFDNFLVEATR

This experiment deals with Galactocerebrosidase (Homo sapiens) (UniProt P54803). Kind of experiment: A Novel Cell-Based Assay to Identify Small Molecules for B -Galactocerebrosidase. Also: 0% is about no effect; nearly all actives have a fitted effect of over 65% in size. The settings on record: 145M-Twi-hGALC-G270D cells (Twitcher mouse brain line with human GALC G270D), HMU-beta-Gal fluorescence, 48 h; series mostly up to 57.5 µM; activation: at the top concentration. The method, boiled down:
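Brain-derived Twitcher mouse 145M-Twi cells stably expressing human GALC-G270D or wild-type GALC, treated live, then residual GALC activity read by fluorescence of HMU-b-Gal substrate (0.1 mM final) in citrate-phosphate buffer pH 5.2 with sodium taurocholate. Signal increase indicates enhancement.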
On to `CC(C)(C)CC(=O)NCC(c1ccc2c(c1)OCO2)N1CCOCC1` (stereo unspecified), for which the “activation” value is inactive: -5.47%.

In the case of `O=C(COc1ccc(Cl)cc1)OCc1cc(=O)n2nc(C3CC3)sc2n1`, the “activation” value was inactive: -4.46%. Turning to `COc1ccc(C(=O)Nc2nc(-c3nnn(-c4ccc(C(C)C)cc4)c3C)ns2)cc1`, the “activation” value was inactive: 0.441%. With `COc1ccccc1CCNC(=O)C(C)Sc1nc(-c2ccccc2)cc(C(F)(F)F)n1` (stereo unspecified) the figure was inactive: -3.38%; with `CCc1ccc(NC(=O)Cn2c(=O)n(CCC(=O)NCCc3ccc(Cl)cc3)c(=O)c3ccccc32)cc1`, inactive: 0.379%; with `COc1ccc(C)cc1NC(=O)Nc1cccc(-c2noc(C)n2)c1`, inactive: -22.5%.

For the compound `Cc1noc(/C=C/c2ccccc2F)c1S(=O)(=O)N1CCC(C(=O)N2CCOc3ccccc32)CC1`, the “activation” value is inactive: -11.1%. `COc1ccc(Nc2ncnc3c2nc2n3CCCCC2)cc1`: the “activation” value is inactive: -12.1%. With `CCCOc1ccc(CNC(=O)c2[nH]c3cc(OC)ccc3c2Sc2ccccc2)cc1` the figure was inactive: -9.62%; with `O=C(Cn1ncn2c(cc3ccccc32)c1=O)NCc1ccc(F)cc1`, inactive: -8.36%.

On to `Cc1ccc(-c2cc(-c3ccccc3)c(C#N)c(SCC(O)CS(=O)(=O)Cc3ccccc3)n2)cc1` (stereo unspecified), for which the “activation” value was inactive: -12.4%. `Cc1ccc2[nH]c(=O)c3cc(C(=O)NCCCN4CCC(C)CC4)sc3c2c1`: the “activation” value is inactive: -11.9%. As to `CCN(C(=O)CSc1nc2ccccc2n1Cc1ccc(F)cc1Cl)c1ccccc1`, the “activation” value is inactive: -16.8%. As to `CC(=O)Nc1ccc(N(C(=O)Cn2nnc3ccccc32)C(C(=O)NCc2ccccc2)c2ccc(C)cc2)cc1` (stereo unspecified), the “activation” value is inactive: -26.9%.

As to `COc1ccc(CCNC(=O)c2c(C)oc3ncn(C)c(=O)c23)c(OC)c1`, the “activation” value is inactive: -2.81%. For the compound `COC(=O)c1ccccc1NC(=O)CCCn1c(=O)c2cccn2c2cccnc21`, the “activation” value is inactive: -1.55%. As for `COc1ccc(CC(=O)NCc2nc3cccnc3n2Cc2ccccc2)cc1`, the “activation” value was inactive: -7.32%.

Consider `CN(C)c1ccc(Nc2ncnc3sc4c(c23)CCCC4)cc1`, for which the “activation” value is inactive: -0.357%. In the case of `Cc1cc(NC(=O)CN2CCC(C)CC2)nc2c1c(=O)oc1ccccc12`, the “activation” value is inactive: -9.93%. `CCOC(=O)C(Cc1c[nH]c2ccccc12)NC(=O)COc1ccc(CC)cc1` (stereo unspecified): the “activation” value was inactive: -15.9%.

Turning to `COc1ccc(C)cc1N(C)C(=O)CCc1nc(-c2ccccc2F)no1`, the “activation” value was inactive: -4.51%. For `CCOC(=O)c1c(C)[nH]c(C)c1S(=O)(=O)N1CCC(C(=O)NCc2ccccc2Cl)CC1`, the “activation” value is inactive: -18.6%. In the case of `CCCCNc1oc(-c2ccc(COc3ccc(OC)cc3)o2)nc1C#N`, the “activation” value is inactive: -11%. With `Cc1ccc(Cl)cc1NC(=O)CN1C(=O)CCc2ccccc21` the figure was inactive: -12.5%; with `O=c1c2cn[nH]c2nc(SCc2c(F)cccc2F)n1-c1ccc(Cl)cc1`, inactive: -20.3%.

For the compound `CCCCN(CC)CCCNC(=O)Cn1ncc2c([nH]c3ccc(C)cc32)c1=O`, the “activation” value was inactive: -4.51%.

As for `COc1cccc(N2CCN(S(=O)(=O)c3cc(-c4cc(C)no4)ccc3C)CC2)c1`, the “activation” value is inactive: -21.1%. On to `O=C(Cn1cnc2ccccc2c1=O)NCCC(=O)Nc1ccc(F)cc1`, for which the “activation” value is inactive: -16.3%.

Turning to `CC(C)COc1ccc(C(=O)Nc2cc(-c3ccccc3)no2)cc1`, the “activation” value is inactive: -23.5%. Consider `CCOc1cccc(C(=O)Nc2nc3c(s2)CC(C(C)(C)C)CC3)c1` (stereo unspecified), for which the “activation” value is inactive: -11.9%. Regarding `COc1ccc(N(CC(=O)N2CCN(c3ccc(F)cc3)CC2)S(=O)(=O)c2c(C)noc2C)cc1`, the “activation” value was inactive: -24.2%. With `O=C(NCc1ccco1)c1ccc2c(c1)N(Cc1ccc(F)cc1)C(=O)c1ccccc1S2(=O)=O`, the “activation” value is inactive: -6.49%. In the case of `CCCCN1C(=O)C(O)(CC(=O)c2ccc(C)cc2C)c2cc(Br)ccc21` (stereo unspecified), the “activation” value was inactive: -10.3%. Turning to `COc1cc(OC)cc(-c2nc3n(n2)C(c2ccccc2)C(C(N)=O)=C(C)N3)c1` (stereo unspecified), the “activation” value was inactive: -18.1%. As to `CC(=O)N1c2ccc(S(=O)(=O)Nc3ccc(Cl)cc3C)cc2CC1C` (stereo unspecified), the “activation” value is inactive: -4.85%. With `COc1ccccc1NC(=O)COc1ccc(-c2nn(C)c(=O)c3ccccc23)cc1` the figure was inactive: -8.36%; with `COc1cccc(CNC(=O)c2cc(Sc3cccc(Cl)c3)nc3ccccc23)c1`, inactive: -27%; with `Cc1ccc(/C=C/C(=O)Nc2ccccc2C(N)=O)o1`, inactive: -11.6%. As for `CCCCS(=O)(=O)c1oc(-c2ccc(F)cc2)nc1S(=O)(=O)c1ccc(C)cc1`, the “activation” value is inactive: -15.6%.

Take `Cn1c(=O)oc2cc(S(=O)(=O)N3CCC(C(=O)N4CCN(c5ccccc5F)CC4)CC3)ccc21`: the “activation” value was inactive: -7.61%.

Take `CCOC(=O)c1c(NC(=O)COc2cccc(C)c2C)sc2c1CCC(CC)C2` (stereo unspecified): the “activation” value was inactive: -22.9%. With `O=C(NCc1cccc(F)c1)c1ccc(NC(=O)c2nsc3ccccc23)cc1` the figure was inactive: -4.87%; with `Cc1ccc(CCNC(=O)c2c(C)oc3ncn(CC(C)C)c(=O)c23)cc1`, inactive: 0.615%; with `CC(C)(C)OC(=O)N1CCC(c2c(C(=O)NCCc3ccccc3)cnn2-c2ccc(F)cc2F)CC1`, inactive: -3.83%. With `COc1ccc(-c2c(C)c3ccc(O)c(CN4CCN(CCO)CC4)c3oc2=O)cc1OC` the figure was inactive: -14.3%; with `Cc1sc(-c2cc3c([nH]c2=O)CC(c2ccccc2)CC3=O)nc1-c1ccc(Cl)cc1` (stereo unspecified), inactive: -14.8%.

In the case of `Cc1c(C(=O)N2CCOCC2)oc2c1-c1nn(CC(=O)NCc3cccc(Cl)c3)cc1CC2`, the “activation” value was inactive: -6.55%. As to `Cc1ccc(C)c(N2CCN(CCCNC(=O)c3cnn(-c4ccc(F)cc4)c3C3CCN(C(=O)OC(C)(C)C)CC3)CC2)c1`, the “activation” value is inactive: -11.6%. Turning to `C#CCn1c(=O)n(-c2cccc(Cl)c2C)c(=O)c2c3c(sc21)CN(C(C)=O)CC3`, the “activation” value was inactive: -19%. With `CC(=O)c1ccc(-n2c(CCC(=O)O)ccc2-c2cccs2)cc1` the figure was inactive: -10.3%.

In the case of `Cc1ccc(C)c(CSc2nnc(C)n3c2cc2sccc23)c1`, the “activation” value is inactive: -3.33%.

For the compound `COc1ccc(-c2cnc(C)o2)cc1S(=O)(=O)Nc1ccc(OC(F)(F)F)cc1`, the “activation” value was inactive: -1.51%. In the case of `CCOc1ccc(CNC(=O)Cn2nc(C)c3c(C)n(-c4ccc(C)cc4)nc3c2=O)cc1`, the “activation” value is inactive: -15.7%.

For `CC(C)C(=O)Nc1nc2c(s1)CC(C(C)(C)C)CC2` (stereo unspecified), the “activation” value was inactive: -11%. For `O=C(CS(=O)(=O)c1cccc2nsnc12)NCc1ccccc1`, the “activation” value is inactive: -22.1%. In the case of `COc1cc(NC(=O)C(Cc2ccccc2)NS(=O)(=O)c2cccs2)cc(OC)c1` (stereo unspecified), the “activation” value was inactive: -15.6%. With `Cc1noc(/C=C/c2ccccc2F)c1S(=O)(=O)N1CCC(C(=O)NCC(C)c2ccccc2)CC1` (stereo unspecified) the figure was inactive: -8.61%. With `O=C(Cn1c(=O)nc(-c2ccccc2)c2ccccc21)N1CCN(c2ccc(F)cc2)CC1`, the “activation” value was inactive: -9.71%. `COc1cc(OC)c(NC2=C(c3ccc(C(F)(F)F)cc3)C(=O)c3ccccc32)cc1Cl`: the “activation” value is inactive: -4.64%. With `Cc1ccc(-n2c(=O)c3c(c4cc(C)ccc4n3C)n(CC(=O)c3ccc(Cl)cc3)c2=O)cc1`, the “activation” value was inactive: -6.88%. As for `O=C(O)CSc1nc2ccc(NC(=O)COc3ccc(Cl)cc3)cc2s1`, the “activation” value was inactive: -17.8%.

On to `CC(C)Oc1ccccc1NC(=O)CSc1nccn1C`, for which the “activation” value was inactive: -9.7%. With `OCCCn1c(-c2ccc(F)cc2)csc1=Nc1ccc(F)cc1` the figure was inactive: -37.2%; with `COc1ccc(CNC(=O)CC(c2ccc(OC)cc2)N2Cc3ccccc3C2=O)cc1` (stereo unspecified), inactive: -12.8%; with `COc1cccc(Cc2nc3ccccc3nc2SCC(=O)N2CCCc3ccccc32)c1`, inactive: 28.5%. With `COC(=O)c1ccc(NC(=O)CSc2nnc3c4ccccc4n(C(C)C)c3n2)cc1`, the “activation” value was inactive: -16.8%.

For `Cc1ccc(NC(=O)c2ccc(CN3CC(=O)N4CCCCC4C3=O)cc2)c(C)c1` (stereo unspecified), the “activation” value is inactive: -14.2%. Consider `Cc1ccc2c(=O)c(C(=O)c3ccc(F)cc3)cn(CC(=O)Nc3ccc4c(c3)OCCO4)c2n1`, for which the “activation” value was inactive: -9.59%.

On to `CCOc1cccc(C(=O)Nc2cc(C)c(O)c(-c3nc4ncccc4o3)c2)c1`, for which the “activation” value is inactive: -2.78%. As for `CCCNC(=O)CN1C(=O)COc2ccc(S(=O)(=O)N3CCC(C)CC3)cc21`, the “activation” value is inactive: -1.82%. Take `COc1ccc(OC)c(-n2c3c(cc(-c4nc(-c5ccc(Cl)cc5)cs4)c2=O)C(=O)CC(C)(C)C3)c1`: the “activation” value was inactive: -10.5%. As to `O=C(c1ccc2c(c1)N(Cc1ccccc1)C(=O)c1ccccc1S2(=O)=O)N1CCc2ccccc21`, the “activation” value is inactive: -11.5%. With `Cc1c(NC(=O)C(C)(C)Oc2ccc(Cl)cc2)cccc1-c1nc2ccccc2o1` the figure was inactive: -17.9%; with `CCOC(=O)c1c(NC(=O)c2cc(=O)c3cc(C)cc(C)c3o2)sc(C)c1C`, inactive: -11.4%; with `O=C(CSc1nccn1C1CCCC1)Nc1cc(C(F)(F)F)ccc1Cl`, inactive: -17%. Turning to `Cc1ccc(-c2nn(CC(=O)NCc3ccccc3)c3c2cnc2ccc(F)cc23)cc1C`, the “activation” value was inactive: -18.8%. As to `CCC(=O)N1CCc2cc(S(=O)(=O)NC(Cc3ccccc3)C(=O)Nc3ccccc3C)ccc21` (stereo unspecified), the “activation” value was inactive: -20.2%. Turning to `O=S(=O)(c1ccc(Cl)cc1)c1nc(-c2ccco2)oc1SCc1ccccc1F`, the “activation” value was inactive: -11.3%.

With `COc1ccccc1CNC(=O)CSc1ccc(-c2sc(-c3ccccc3)nc2C)nn1`, the “activation” value is inactive: -0.963%.

Consider `CC(C(=O)O)c1ccc(/C=C2\CCCCC2=O)cc1` (stereo unspecified), for which the “activation” value is inactive: -16.8%.

In the case of `Cc1cccc(NC(=O)C(=O)NCC(c2ccc3c(c2)OCO3)N2CCN(c3ccccc3)CC2)c1` (stereo unspecified), the “activation” value was inactive: -8.81%.

`CCOCCCNC(=O)C(c1ccccc1)N1Cc2ccccc2C1=O` (stereo unspecified): the “activation” value was inactive: -4.12%. Consider `O=C(Nc1sc2c(c1C(=O)Nc1ccccc1)CCC2)c1ccc(Br)cc1`, for which the “activation” value was inactive: 2.57%. With `CC(=O)c1cccc(NS(=O)(=O)c2cc3c(cc2C)n(C)c(=O)c(=O)n3C)c1` the figure was inactive: -11.4%; with `COc1ccc(-c2cc(C(F)F)nn2-c2ccc(S(N)(=O)=O)cc2)cc1F`, inactive: -4.22%; with `Cc1nc2cccnc2n1-c1cccc(C(=O)NCCN(C)C)c1`, inactive: -5.88%.

For `CC(C)c1nn2c(=O)cc(COC(=O)c3cccs3)nc2s1`, the “activation” value was inactive: -10%. With `COc1ccccc1CNC(=O)C(C)n1c(=O)cc(-c2ccccc2)c2c(C)nn(C)c21` (stereo unspecified) the figure was inactive: -6.08%; with `CC(=O)Nc1ccc2nc3c(=O)n(C)c(=O)n(C)c3nc2c1C`, inactive: -3.46%. Regarding `CCOC(=O)Cn1c(=O)oc2cc(S(=O)(=O)N3CCN(c4cccc(C)c4)C(C)C3)ccc21` (stereo unspecified), the “activation” value is inactive: -3.82%. With `Cc1cccc(OC(=O)c2cc(-c3ccc(C)c(C)c3)on2)c1` the figure was inactive: -11.8%; with `COc1ccc(Cl)cc1NC(=O)N1CCN(Cc2cc(=O)n3nc(-c4ccccc4)sc3n2)CC1`, inactive: -8.02%; with `O=C1CCSC2(C(=O)N(Cc3ccc(F)cc3)c3ccccc32)N1c1ccc(Cl)cc1` (stereo unspecified), inactive: -6.99%. With `N#Cc1nc(-c2ccc(COc3ccccc3)o2)oc1N1CCN(c2ccccc2)CC1` the figure was inactive: -14.8%.

Take `CCc1ccc(CNC(=O)c2cnc3sc(N4CCOCC4)nn3c2=O)cc1`: the “activation” value was inactive: -12.5%.

Turning to `CCOC(=O)c1c(S(=O)(=O)N2CCCC(C(=O)NCc3cccc(C)c3)C2)c(C)n(C)c1C` (stereo unspecified), the “activation” value is inactive: -16.1%.

The values are drawn from PubChem BioAssay AID1159614 (National Center for Advancing Translational Sciences (NCATS), 2016).
